Measurements: USRE50631E1, “ROR1 antibody immunoconjugates” (VelosBio Inc., priority 2017, dated 2025)
“And” between values parts separate entries of the source, which are not always exact repeats. Equal entries are not always repeated.

Tests used:
[1] = biological target: T1, ROR1 on Jeko-1 cells (Homo sapiens, UniProt Q01973); test: Binding to ROR1-positive Jeko-1 cells (flow cytometry receptor binding assay); settings: 20 minutes on ice, PE secondary antibody
T1 construct: The Jeko-1 cell line, from mantle cell lymphoma, is a suspension cell line; host or cells: Jeko-1 (human mantle cell lymphoma)
Description: (§1) The binding to tumor cells by antibodies Ab1 and 4A5, as well as ADC constructs derived from those antibodies (ADC-A and ADC-T), was evaluated. First, the binding of Ab1 to two ROR1-positive human tumor cell lines representing different cancer types was tested. The Jeko-1 cell line, from mantle cell lymphoma, is a suspension cell line, while the MDA-MB-231 cell line, from triple negative breast cancer, is an adherent cell line. The cell lines have different levels of ROR1 expression, with Jeko-1 cells displaying about 13507 cell surface copies and the MDA-MB-231 cells displaying about 21015 cell surface copies. The Jeko-1 (ATCC Cat. No. CRL-3006) and MDA-MB-231 (ATCC Cat. No. […]) cell lines were purchased from the American Type Culture Collection and were maintained according to the ATCC recommendations.
(§2) Jeko-1 cells (FIG. 2A) or MDA-MB-231 cells (FIG. 2B) were incubated with 0, 1, 10, 100, or 1000 ng/mL of Ab1 for 20 minutes on ice. After washing off unbound antibody, the cells were incubated with secondary anti-human IgG antibody labeled with phycoerythrin (PE) for an additional 20 minutes. The amount of PE fluorescence was measured using the BDFACS Verse analyzer and FlowJo V10 software. The PE signal for the highest concentration was used as the maximal binding signal to calculate the % maximal binding. EC50 was calculated using GraphPad Prism 7. […]

[2] = biological target: T2, ROR1 on MDA-MB-231 cells (Homo sapiens, UniProt Q01973); test: Binding to ROR1-positive MDA-MB-231 cells (flow cytometry receptor binding assay); settings: 20 minutes on ice, PE secondary antibody
T2 construct: the MDA-MB-231 cell line, from triple negative breast cancer, is an adherent cell line; host or cells: MDA-MB-231 (human triple negative breast cancer)
Description: as §1, §2

[3] = test system: Jeko-1 cells; test: Internalization by Jeko-1 cells (pulse-chase flow cytometry); type: cell-based, human
Description: Multiple methods were used to determine antibody internalization. In one approach, internalization was measured using a pulse-chase methodology that quantitates non-internalized, cell surface antibody at 15, 30, 60, 120, and 240 minutes using flow cytometry. Jeko-1 cells were grown and harvested prior to confluency, washed with cold PBS and resuspended at 1×10^7 in cold FACS buffer (PBS+2% FBS-Fisher/Gibco Cat. No. 16140071). 1×10^6 cells were added to microcentrifuge tubes or wells. Internalization of Ab1 and ADC constructs by the cells was determined at saturating antibody concentrations, using 30 μg/ml for Jeko-1 cells and 100 μg/mL for MDA-MB-231 cells. 10× stock solutions of ADC constructs or Ab1 were prepared (300 μg/ml for use with Jeko-1 cells or 1 mg/ml for use with MDA-MB-231 cells) and 10 μL of sample or buffer control was added to the following (adding additional tubes for each time point): • a) Unstained • b) Secondary antibody only • c) Negative Control hIgG mAb at 30 μg/ml—time 0 • d) Positive Control ADC construct or Ab1 at 30 μg/ml—time 0 • e) ADC construct or Ab1—time point 1 • f) ADC construct or Ab1—time point 2, etc.
(§3) Cells and antibody were incubated on ice for 20 minutes, spun at 300×g for 4 minutes, washed twice with 200 μL of FACS buffer, and resuspended in 100 μL of FACS buffer. The samples were incubated at 37° C. for 15, 30, 60, 120, and 240 minutes, as indicated above. Internalization was terminated by transferring the samples to ice. A time course for antibody internalization was generated for each test article as described above, after which antibody remaining on the cell surface was detected using a PE-labeled secondary antibody. Cells were spun at 250×g, washed twice with FACS buffer and resuspended in 100 μL of FACS buffer. […] The median fluorescent intensity (MFI) was quantitated and the degree of receptor internalization was determined using the amount of the antibody or ADC present at each time point when compared to the amount present at time=0. […]

[4] = test system: MDA-MB-231 cells; test: Internalization by MDA-MB-231 cells (pulse-chase flow cytometry); type: cell-based, human; settings: MDA-MB-231, in less than 60 minutes
Description: Multiple methods were used to determine antibody internalization. In one approach, internalization was measured using a pulse-chase methodology that quantitates non-internalized, cell surface antibody at 15, 30, 60, 120, and 240 minutes using flow cytometry. Jeko-1 cells were grown and harvested prior to confluency, washed with cold PBS and resuspended at 1×10^7 in cold FACS buffer (PBS+2% FBS-Fisher/Gibco Cat. No. 16140071). 1×10^6 cells were added to microcentrifuge tubes or wells. Internalization of Ab1 and ADC constructs by the cells was determined at saturating antibody concentrations, using 30 μg/ml for Jeko-1 cells and 100 μg/mL for MDA-MB-231 cells. […]
as §3, with “The samples were incubated at 37° C. for 15, 30, 60, 120, and 240 minutes, as indicated above. Internalization was terminated by transferring the samples to ice.” left out, “antibody.” for “antibody. Cells were spun at 250×g, washed twice with FACS buffer and resuspended in 100 μL of FACS buffer.”

[5] = biological target: T3, cell surface ROR1 on Jeko-1 cells (Homo sapiens, UniProt Q01973); test: Cell surface ROR1 expression during internalization, Jeko-1 cells; type: cell-based; settings: up to 4 hours
T3 construct: The Jeko-1 cell line, from mantle cell lymphoma, is a suspension cell line; host or cells: Jeko-1 (human mantle cell lymphoma)
Description: Internalization of antibodies was measured using pulse-chase approaches that detected non-internalized, cell surface antibody at various time points (2, 5, 10, 15, 20, 30, 60, 120 and 240 minutes). In this study, in addition to measuring non-internalized cell surface antibody, the expression of ROR1 on the cell surface was quantitated either by (1) re-staining with Ab1 and a secondary antibody or (2) by using a second, labeled anti-ROR1 antibody that recognizes an epitope distinct from that of Ab1.
For the first approach, internalization of Ab1 on Jeko-1 cells was performed as described in Example 3 (one sample was processed at each time point to quantitate antibody remaining on the cell surface). Additionally, a second sample at each time point was rapidly re-stained using saturating levels of Ab1 (30 μg/mL) while maintaining the cells on ice. Subsequently, the cells were washed and surface antibody was quantitated using the same secondary antibody used for internalization measurements.
An alternative approach to measuring cell surface ROR1 expression in conjunction with Ab1 internalization studies was tested. Specifically, cell surface ROR1 expression was quantitated at 0, 0.5, 1, 2, and 4 hours by staining cells directly with a labeled anti-ROR1 antibody that binds an epitope distinct from that of Ab1.

[6] = test system: DLBCL-GCB PDX; test: DLBCL-GCB PDX mouse model; type: in vivo; settings: ADC-A 5 mg/kg IV qw; Ab1 10 mg/kg IV qw; venetoclax 50 mg/kg PO qd; 24 days
Description: Germinal center B-cell like diffuse large B-cell lymphoma (DLBCL-GCB) cells were engrafted subcutaneously into mice, and the engrafted mice were randomized into five groups, 6 mice/group. The groups were vehicle control, 10 mg/kg Ab1, 50 mg/kg venetoclax, 10 mg/kg Ab1 plus 50 mg/kg venetoclax, and 5 mg/kg ADC-A. Ab1 and ADC-A were administered IV, qw and venetoclax was administered PO qd.

[7] = test system: MDA-MB-231 cells; test: Internalization by immunofluorescent staining, MDA-MB-231 cells; type: cell-based, human
Description: Internalization of Ab1 was also characterized using conventional immunofluorescent staining methods and MDA-MB-231 cells. In this approach, Ab1 was loaded at the cell surface and the cells were subsequently fixed and surface Ab1 was quantitated. In addition, a second sample of the cells was permeabilized and total Ab1 (surface and intracellular) was quantitated. In this protocol, the primary antibody was allowed to incubate without a secondary antibody, eliminating the possibility that the secondary antibody might influence internalization. Surface staining was observed. After permeabilization, clear and distinct punctate intracellular staining of Ab1 was observed. […] This finding is consistent with a mode of antibody internalization that primarily occurs by the lysosome/endosome pathway. Finally, the rate of internalization was quantitated. […] The newly expressed cell surface receptor may be recycled, expressed from intracellular stores, and/or newly synthesized. The extent and character of co-localization of Ab1 was similar to EGFR, showing substantially lysosomal co-localization after 4 hours.

[8] = test system: OCI-Ly18; test: Cytotoxicity in vitro (CellTiter-Glo viability), OCI-Ly18; type: cell-based, human; settings: OCI-Ly18 (DLBCL), 72 hours
[9] = test system: U2932; test: Cytotoxicity in vitro (CellTiter-Glo viability), U2932; type: cell-based, human; settings: U2932 (DLBCL), 72 hours
[10] = test system: OCI-Ly19; test: Cytotoxicity in vitro (CellTiter-Glo viability), OCI-Ly19; type: cell-based, human; settings: OCI-Ly19 (DLBCL), 72 hours
[11] = test system: KMS-PE; test: Cytotoxicity in vitro (CellTiter-Glo viability), KMS-PE; type: cell-based, human; settings: KMS-PE (KMS-12PE in Table 9.3) (MM), 72 hours
[12] = test system: RPMI-8229; test: Cytotoxicity in vitro (CellTiter-Glo viability), RPMI-8229; type: cell-based, human; settings: RPMI-8229 (MM), 72 hours
[13] = test system: OPM2; test: Cytotoxicity in vitro (CellTiter-Glo viability), OPM2; type: cell-based, human; settings: OPM2 (MM), 72 hours
[14] = test system: L363; test: Cytotoxicity in vitro (CellTiter-Glo viability), L363; type: cell-based, human; settings: L363 (MM), 72 hours
[15] = test system: NCI-H929; test: Cytotoxicity in vitro (CellTiter-Glo viability), NCI-H929; type: cell-based, human; settings: NCI-H929 (MM), 72 hours
[16] = test system: HCC1806; test: Cytotoxicity in vitro (CellTiter-Glo viability), HCC1806; type: cell-based, human; settings: HCC1806 (TNBC), 72 hours
[17] = test system: MDA-MB-231; test: Cytotoxicity in vitro (CellTiter-Glo viability), MDA-MB-231; type: cell-based, human; settings: MDA-MB-231 (TNBC), 72 hours
[18] = test system: Hs578T; test: Cytotoxicity in vitro (CellTiter-Glo viability), Hs578T; type: cell-based, human; settings: Hs578T (TNBC), 72 hours
[19] = test system: DU4475; test: Cytotoxicity in vitro (CellTiter-Glo viability), DU4475; type: cell-based, human; settings: DU4475 (TNBC), 72 hours
[20] = test system: OvCar4; test: Cytotoxicity in vitro (CellTiter-Glo viability), OvCar4; type: cell-based, human; settings: OvCar4 (Ovarian), 72 hours
[21] = test system: ES2; test: Cytotoxicity in vitro (CellTiter-Glo viability), ES2; type: cell-based, human; settings: ES2 (Ovarian), 72 hours
[22] = test system: A2780; test: Cytotoxicity in vitro (CellTiter-Glo viability), A2780; type: cell-based, human; settings: A2780 (Ovarian), 72 hours

T1 sequence (Q01973 30-937): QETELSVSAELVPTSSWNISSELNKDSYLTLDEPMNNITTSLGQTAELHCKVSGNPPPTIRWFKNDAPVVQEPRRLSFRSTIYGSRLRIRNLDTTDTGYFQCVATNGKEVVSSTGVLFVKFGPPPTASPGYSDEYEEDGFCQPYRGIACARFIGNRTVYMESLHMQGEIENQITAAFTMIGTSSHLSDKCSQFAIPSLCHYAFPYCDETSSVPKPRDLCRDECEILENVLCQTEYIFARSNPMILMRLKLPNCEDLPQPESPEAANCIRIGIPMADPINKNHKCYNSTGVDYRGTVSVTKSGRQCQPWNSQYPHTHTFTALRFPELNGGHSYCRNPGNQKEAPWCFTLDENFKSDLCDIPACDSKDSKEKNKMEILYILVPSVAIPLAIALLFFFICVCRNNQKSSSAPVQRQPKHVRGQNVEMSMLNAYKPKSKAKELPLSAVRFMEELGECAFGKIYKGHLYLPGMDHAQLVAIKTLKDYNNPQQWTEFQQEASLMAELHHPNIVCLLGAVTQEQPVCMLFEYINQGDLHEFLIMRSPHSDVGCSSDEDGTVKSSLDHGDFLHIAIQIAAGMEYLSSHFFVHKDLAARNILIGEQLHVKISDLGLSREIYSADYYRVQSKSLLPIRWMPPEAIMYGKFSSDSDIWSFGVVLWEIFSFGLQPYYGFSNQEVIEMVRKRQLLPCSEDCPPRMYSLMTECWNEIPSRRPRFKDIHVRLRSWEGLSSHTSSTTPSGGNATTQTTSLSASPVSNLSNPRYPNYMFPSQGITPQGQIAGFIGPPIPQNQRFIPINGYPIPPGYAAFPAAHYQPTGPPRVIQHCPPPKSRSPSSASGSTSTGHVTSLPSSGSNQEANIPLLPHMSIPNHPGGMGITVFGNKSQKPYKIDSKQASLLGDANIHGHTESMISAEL
T3 sequence (Q01973 30-937): as above
T2 sequence (Q01973 30-937): as above

B1: Ab1 (antibody)
heavy: QVQLQESGPGLVKPSQTLSLTCTVSGYAFTAYNIHWVRQAPGQGLEWMGSFDPYDGGSSYNQKFKDRLTISKDTSKNQVVLTMTNMDPVDTATYYCARGWYYFDYWGHGTLVTVSS[skipping human IgG1 constant region]
light: DIVMTQTPLSLPVTPGEPASISCRASKSISKYLAWYQQKPGQAPRLLIYSGSTLQSGIPPRFSGSGYGTDFTLTINNIESEDAAYYFCQQHDESPYTFGEGTKVEIKRTVAAPSVFIFPPSDEQLKSGTASVVCLLNNFYPREAKVQWKVDNALQSGNSQESVTEQDSKDSTYSLSSTLTLSKADYEKHKVYACEVTHQGLSSPVTKSFNRGEC
EC50 of binding to cells [1]: 0.0136 µg/mL and 0.01639 µg/mL and 0.0165 µg/mL
EC50 of binding to cells [2]: 0.0328 µg/mL
Internalization of the bound antibody ([3]; Jeko-1, in less than 120 minutes): 80-90%
Internalization of the bound antibody [4]: 80-90%
cell surface ROR1 expression during treatment [5]: restored to initial or slightly higher levels
tumor response [6]: ineffective
rate of internalization ([7]; MDA-MB-231, continuous exposure to Ab1): the initial rate was approximately twice the average rate, and the terminal rate was approximately half the average rate
intracellular localization of internalized antibody ([7]; MDA-MB-231, lysosome-specific tracker): co-localized with the lysosomal pathway

B2: ADC-B: Ab1 conjugated via SMCC to DM1 (conjugate)
heavy: QVQLQESGPGLVKPSQTLSLTCTVSGYAFTAYNIHWVRQAPGQGLEWMGSFDPYDGGSSYNQKFKDRLTISKDTSKNQVVLTMTNMDPVDTATYYCARGWYYFDYWGHGTLVTVSS[skipping human IgG1 constant region]
light: DIVMTQTPLSLPVTPGEPASISCRASKSISKYLAWYQQKPGQAPRLLIYSGSTLQSGIPPRFSGSGYGTDFTLTINNIESEDAAYYFCQQHDESPYTFGEGTKVEIKRTVAAPSVFIFPPSDEQLKSGTASVVCLLNNFYPREAKVQWKVDNALQSGNSQESVTEQDSKDSTYSLSSTLTLSKADYEKHKVYACEVTHQGLSSPVTKSFNRGEC
internalization compared with Ab1 / ADC-A ([3]; Jeko-1 cells): did not negatively impact binding or internalization
EC50 [8]: 40 nM
EC50 [9]: 53.9 nM
EC50 [10]: 40 nM
EC50 [11]: 72 nM
EC50 [12]: 91 nM
EC50 [13]: 108 nM
EC50 [14]: 177 nM
EC50 [15]: 90 nM
EC50 [16]: 23.1 nM
EC50 [17]: 67.5 nM
EC50 [18]: 11.7 nM
EC50 [19]: 105 nM
EC50 [20]: 291 nM
EC50 [21]: 117 nM
EC50 [22]: 36 nM
